Some of the results follow.

This note sets out measurements from the supplement of paper PMC8728848.

Holding throughout (experiment): glycan array binding signal (z-score within array); higher = stronger binding
Common to all, as to conditions: glycan notation: IUPAC condensed, linker removed

In one test the target is Neu5Ac(a2-6)GalNAc. The procedure, abridged: (§1)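 The binding signal is a Z-score computed within each array and averaged over linkers. Arrays of the same protein sequence at different concentrations or buffers were also averaged together. Data originate from 3228 arrays in the Consortium for Functional Glycomics database, kept only where the protein sequence was available.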

The target of test [1] is Neu5Ac(a2-6)GalNAc(b1-4)GlcNAc. The procedure, abridged:
as §1

For test [2], the target named is Neu5Ac(a2-6)GlcNAc(b1-4)GlcNAc. The procedure, abridged:
as §1

Test [3] concerns the target Neu5Ac(a2-6)GlcNAc(b1-4)GlcNAc(b1-4)GlcNAc. The procedure, abridged:
as §1

The next test addresses Neu5Ac(a2-8)Neu5Ac. The essentials: as §1
The target of test [4] is Neu5Ac(a2-8)Neu5Ac(a2-3)Gal(b1-4)Glc. The essentials:
as §1

Test [5] deals with Neu5Ac(a2-8)Neu5Ac(a2-3)[GalNAc(b1-4)]Gal(b1-4)Glc. The procedure, abridged: as §1
The target of test [6] is Neu5Ac(a2-8)Neu5Ac(a2-8)Neu5Ac. The essentials:
as §1

Test [7] has as its target Neu5Ac(a2-8)Neu5Ac(a2-8)Neu5Ac(a2-3)Gal(b1-4)Glc. The essentials:
as §1

For test [8], the target named is Neu5Ac(a2-8)Neu5Ac(a2-8)Neu5Ac(a2-3)[GalNAc(b1-4)]Gal(b1-4)Glc. The essentials: as §1
The target in test [9] is Neu5Ac(a2-8)Neu5Ac(a2-8)Neu5Ac(a2-8)Neu5Ac(a2-3)[GalNAc(b1-4)]Gal(b1-4)Glc. The essentials: as §1
The target of test [10] is Neu5Ac(b2-6)Gal(b1-4)GlcNAc. The essentials: as §1
The next test addresses Neu5Ac(b2-6)GalNAc. The procedure, abridged:
as §1

The target of test [11] is Neu5Ac9Ac(a2-3)Gal(b1-3)GlcNAc. The essentials:
as §1

Test [12] deals with Neu5Ac9Ac(a2-3)Gal(b1-4)GlcNAc. The essentials: as §1
The target of test [13] is Neu5Ac9Ac(a2-6)Gal(b1-4)GlcNAc. The essentials: as §1
Test [14] concerns the target Neu5Gc(a2-3)Gal(b1-3)GlcNAc. The essentials: as §1
The target of test [15] is Neu5Gc(a2-3)Gal(b1-3)[Fuc(a1-4)]GlcNAc. The procedure, abridged:
as §1

Another test deals with Neu5Gc(a2-3)Gal(b1-4)Glc. The procedure, abridged:
as §1

In test [16] the target is Neu5Gc(a2-3)Gal(b1-4)GlcNAc. The procedure, abridged: as §1
The target of test [17] is Neu5Gc(a2-3)Gal(b1-4)[Fuc(a1-3)]GlcNAc. The essentials:
as §1

In test [18] the target is Neu5Gc(a2-6)Gal(b1-4)GlcNAc. The essentials:
as §1

In the next test the target is Neu5Gc(a2-6)GalNAc. The procedure, abridged: as §1
Test [19] addresses Neu5Gc(b2-6)Gal(b1-4)GlcNAc. The procedure, abridged:
as §1

B1: Eap (Staphylococcus aureus), A0A7L5PYT7 (protein)
chain: MKFKSLITTTLALGVLASTGANFNNNEAAAAAKPLDKSSSSLHHGYSKVHVPYAITVNGTSQNILSSLTFNKNQNISYKDLEDRVKSVLKSDRGISDIDLRLSKQAKYTVYFKNGTKKVIDLKAGIYTADLINTSEIKAININVDTKKQVEDKKKDKANYQVPYTITVNGTSQNILSNLTFNKNQNISYKDLEDKVKSVLESNRGITDVDLRLSKQAKYTVNFKNGTKKVIDLKSGIYTANLINSSDIKSININVDTKKHIENKAKRNYQVPYSINLNGTSTNILSNLSFSNKPWTNYKNLTSQIKSVLKHDRGISEQDLKYAKKAYYTVYFKNGGKRILQLNSKNYTANLVHAKDVKRIEITVKTGTKAKADRYVPYTIAVNGTSTPILSDLKFTGDPRVGYKDISKKVKSVLKHDRGIGERELKYAKKATYTVHFKNGTKKVININSNISQLNLLYVQDIKKIDIDVKTGTKAKADSYVPYTIAVNGTSTPILSKLKISNKQLISYKYLNDKVKSVLKSERGISDLDLKFAKQAKYTVYFKNGKKQVVNLKSDIFTPNLFSAKDIKKIDIDVKQYTKSKKNK
As for B1, the “glycan array binding signal (z-score)” value is -0.656 with Neu5Ac(a2-6)GalNAc; -0.538 in test [1]; -0.604 in test [2]; -0.56 in test [3]; -0.399 in the test with Neu5Ac(a2-8)Neu5Ac; -0.508 in [4]. Besides, the “glycan array binding signal (z-score)” value in test [5] is -0.511; in test [6], -0.447; in test [7] it was -0.632; in [8], -0.376; in [9], -0.431; in [10] it was -0.365. In addition, the “glycan array binding signal (z-score)” value with Neu5Ac(b2-6)GalNAc is -0.421; in test [11] it was 0.41; in test [12], -0.167; in test [13], -0.241; in [14], -0.196; in [15] it was -0.513. In addition, the “glycan array binding signal (z-score)” value in the test with Neu5Gc(a2-3)Gal(b1-4)Glc was -0.159; in test [16], -0.529; in [17], -0.525; in test [18], -0.235; with Neu5Gc(a2-6)GalNAc, 1.1; in [19], 0.298.
